Where a name gives a salt, the structure may show the parent alone. ± gives the standard deviation of the averaged measurements. Whole data set: some 2,000 compounds, median “relative cell viability vs DMSO, compound + 0.2 uM CuET” near 1, cut for the lowest 2% near 0.25. Some of the results follow.
These molecules were tested on TE10 (assay: relative cell viability vs DMSO, compound + 0.2 uM CuET (fraction); TE10 is an esophageal squamous carcinoma line; higher = less cytotoxic). Settings: 2 µM; co-treatment: CuET (bis(diethyldithiocarbamate)copper) 0.2 uM; 48 h.
Protocol: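 TE10 ESCC cells (1,000/well, 384-well plates) were treated with Selleck bioactive library compounds at 2 uM combined with 0.2 uM CuET (copper diethyldithiocarbamate) for 48 h. Viability was read by CellTiter-Glo and expressed relative to DMSO wells. Two technical replicates (A, B).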
In the case of `COc1ccc(CNc2nc(N3CCC[C@H]3CO)ncc2C(=O)NCc2ncccn2)cc1Cl` [Avanafil], the relative cell viability is reported as 0.995 ± 0.023.
`CC(=O)OCC(=O)[C@@]1(O)CC[C@H]2[C@@H]3CCC4=CC(=O)C=C[C@]4(C)[C@H]3[C@@H](O)C[C@@]21C` [Prednisolone Acetate] gave a relative cell viability of 1.14 ± 0.074.
With `CN1CCN(C(=O)c2cc3cc(Cl)ccc3[nH]2)CC1` the relative cell viability was 1.08 ± 0.11.
`N#CC1(c2ccc(NC(=O)c3cccnc3NCc3ccncc3)cc2)CCCC1` [Apatinib] showed a relative cell viability of 1.02 ± 0.061.
With `OC[C@@H](O)CN1CCN(c2ccccc2)CC1` [Levodropropizine] the relative cell viability was 1.14 ± 0.029.
`CC(ONC(=O)c1cc(C(F)(F)F)cc(C(F)(F)F)c1)C(=O)Nc1ccc(Cl)cc1` (stereo not given) was tested, and the relative cell viability was 1.17 ± 0.041.
`CC[C@H](c1ccc(O)cc1)[C@@H](CC)c1ccc(O)cc1` [Hexestrol] showed a relative cell viability of 1.11 ± 0.14.
For `Cc1c(Nc2ncccc2C(=O)O)cccc1C(F)(F)F` [Flunixin Meglumin], the relative cell viability was 0.952 ± 0.076.
`CC(C)=CCCC(C)(OC1OC(COC2OCC(O)C(O)C2O)C(O)C(O)C1O)C1CCC2(C)C1C(O)CC1C3(C)CCC(OC4OC(CO)C(O)C(O)C4O)C(C)(C)C3CCC12C` (stereo not given) [Gynostemma Extract] was tested, and the relative cell viability was 1.04 ± 0.076.
`NCCc1ccc(O)c(O)c1` [Dopamine HCl] gave a relative cell viability of 0.939 ± 0.22.
Work on `C[C@H](CS)C(=O)N1CCC[C@H]1C(=O)O` [Captopril] yielded a relative cell viability of 1.16 ± 0.1.
In the case of `CN(Cc1cc(Br)cc(Br)c1N)C1CCCCC1` [Bromhexine HCl], the relative cell viability is reported as 1.042 ± 0.0029.
`Nc1nc(N)c2nc(-c3cccc(O)c3)c(-c3cccc(O)c3)nc2n1` was tested, and the relative cell viability was 0.952 ± 0.014.
`Cn1cnc2c(F)c(Nc3ccc(Br)cc3Cl)c(C(=O)NOCCO)cc21` [Selumetinib (AZD6244)] gave a relative cell viability of 0.555 ± 0.21.
`FC(F)(F)Oc1ccc2nc(-c3ccc(OCCOCCOc4ccc(-c5nc6ccc(OC(F)(F)F)cc6[nH]5)nc4)cn3)[nH]c2c1` showed a relative cell viability of 0.604 ± 0.076.
Work on `C[C@@H]1C/C=C/C=C/C=C/C=C/[C@H](O[C@@H]2O[C@H](C)[C@@H](O)[C@H](N)[C@@H]2O)C[C@@H]2O[C@](O)(C[C@@H](O)C[C@H]3O[C@@H]3/C=C/C(=O)O1)C[C@H](O)[C@H]2C(=O)O` [Natamycin] yielded a relative cell viability of 1.16 ± 0.1.
Molecule `CC(C(O)c1ccc(O)cc1)N1CCC(Cc2ccccc2)CC1` (stereo not given) [Ifenprodil Tartrate] has a relative cell viability of 0.91 ± 0.069.
`CCn1c(=O)c2c(nc(/C=C/c3ccc(OC)c(OC)c3)n2C)n(CC)c1=O` [Istradefylline] gave a relative cell viability of 0.9155 ± 0.0057.
Molecule `CC(C)(Oc1ccc(Cl)cc1)C(=O)OCCOC(=O)c1cccnc1` [Etofibrate] has a relative cell viability of 1.15 ± 0.087.
In the case of `Cc1cc(C)nc(NS(=O)(=O)c2ccc(N)cc2)n1` [Sulfamethazine], the relative cell viability is reported as 1.09 ± 0.047.
Molecule `CC1(C)O[C@@H]2C[C@H]3[C@@H]4C[C@H](F)C5=CC(=O)C=C[C@]5(C)[C@@]4(F)[C@@H](O)C[C@]3(C)[C@]2(C(=O)CO)O1` [Fluocinolone Acetonide] has a relative cell viability of 1.1 ± 0.032.
Molecule `CC(C)[C@H](N)C(=O)OCCOCn1cnc2c(=O)nc(N)[nH]c21` [Valaciclovir HCl] has a relative cell viability of 0.958 ± 0.033.
`CN1CCN2c3ncccc3Cc3ccccc3C2C1` (stereo not given) [Mirtazapine] gave a relative cell viability of 0.799 ± 0.028.
In the case of `CC(C)N(CC[C@H](c1ccccc1)c1cc(CO)ccc1O)C(C)C`, the relative cell viability is reported as 1.03 ± 0.15.
`CC[C@H](NC(=O)[C@H](C)NC)C(=O)N1C[C@@H](O)C[C@H]1Cc1c(-c2[nH]c3cc(F)ccc3c2C[C@@H]2C[C@H](O)CN2C(=O)[C@H](CC)NC(=O)[C@H](C)NC)[nH]c2cc(F)ccc12` [Birinapant] showed a relative cell viability of 0.473 ± 0.052.
For `CCCCCCNC(=O)n1cc(F)c(=O)[nH]c1=O` [Carmofur], the relative cell viability was 1.31 ± 0.1.
Molecule `CCOC(=O)C1=C(N)Oc2ccc(Cl)cc2C1C(C#N)C(=O)OCC` (stereo not given) has a relative cell viability of 0.663 ± 0.023.
Molecule `Cc1nc(C(=O)NCC(=O)O)c(O)c2ccc(Oc3ccccc3)cc12` has a relative cell viability of 0.566 ± 0.39.
Molecule `COC(=O)C1=CO[C@@H](O)[C@@H]2C(CO)=CC[C@H]12` [Genipin] has a relative cell viability of 1.06 ± 0.033.
With `COc1cccc2c1C(=O)c1c(O)c3c(c(O)c1C2=O)C[C@@](O)(C(=O)CO)C[C@@H]3O[C@H]1C[C@H](N)[C@H](O[C@@H]2CCCCO2)[C@H](C)O1` [Pirarubicin] the relative cell viability was 0.87688 ± 0.00065.
`CC#C[C@]1(O)CC[C@H]2[C@@H]3CCC4=CC(=O)CCC4=C3[C@@H](c3ccc(N(C)C)cc3)C[C@@]21C` [Mifepristone] was tested, and the relative cell viability was 0.939 ± 0.054.
`CC[C@@H]1C(=O)N(C)c2cnc(Nc3ccc(C(=O)N[C@H]4CC[C@H](N5CCN(CC6CC6)CC5)CC4)cc3OC)nc2N1C(C)C` [Volasertib (BI 6727)] was tested, and the relative cell viability was 0.655 ± 0.056.
`CCc1cccc(CC)c1NC(=O)N1Cc2[nH]nc(NC(=O)c3ccc(N4CCN(C)CC4)cc3)c2C1` was tested, and the relative cell viability was 0.985 ± 0.23.
In the case of `Nc1nc(=O)n([C@@H]2CS[C@H](CO)O2)cc1F` [Emtricitabine], the relative cell viability is reported as 1.07 ± 0.073.
In the case of `COc1ccc(Cl)cc1C(=O)NCCc1ccc(S(=O)(=O)NC(=O)NC2CCCCC2)cc1` [Glyburide], the relative cell viability is reported as 1.04 ± 0.053.

— the supplement of paper PMC10670038
